No constants are given. Whether binding was seen depends on the method and setting. Binding seen in cells or lysates may run through a third protein. Some binding calls cover weakened binding; strength is not graded here. Where a sequence is shown, tags or fusion partners need not be part of it.

Protein sequences, listed by entry. Tags and fused reporters are not part of them. Lines headed by an entry give the natural chain unless they say otherwise; changes in a name come on top.
UniProt Q9UJ55: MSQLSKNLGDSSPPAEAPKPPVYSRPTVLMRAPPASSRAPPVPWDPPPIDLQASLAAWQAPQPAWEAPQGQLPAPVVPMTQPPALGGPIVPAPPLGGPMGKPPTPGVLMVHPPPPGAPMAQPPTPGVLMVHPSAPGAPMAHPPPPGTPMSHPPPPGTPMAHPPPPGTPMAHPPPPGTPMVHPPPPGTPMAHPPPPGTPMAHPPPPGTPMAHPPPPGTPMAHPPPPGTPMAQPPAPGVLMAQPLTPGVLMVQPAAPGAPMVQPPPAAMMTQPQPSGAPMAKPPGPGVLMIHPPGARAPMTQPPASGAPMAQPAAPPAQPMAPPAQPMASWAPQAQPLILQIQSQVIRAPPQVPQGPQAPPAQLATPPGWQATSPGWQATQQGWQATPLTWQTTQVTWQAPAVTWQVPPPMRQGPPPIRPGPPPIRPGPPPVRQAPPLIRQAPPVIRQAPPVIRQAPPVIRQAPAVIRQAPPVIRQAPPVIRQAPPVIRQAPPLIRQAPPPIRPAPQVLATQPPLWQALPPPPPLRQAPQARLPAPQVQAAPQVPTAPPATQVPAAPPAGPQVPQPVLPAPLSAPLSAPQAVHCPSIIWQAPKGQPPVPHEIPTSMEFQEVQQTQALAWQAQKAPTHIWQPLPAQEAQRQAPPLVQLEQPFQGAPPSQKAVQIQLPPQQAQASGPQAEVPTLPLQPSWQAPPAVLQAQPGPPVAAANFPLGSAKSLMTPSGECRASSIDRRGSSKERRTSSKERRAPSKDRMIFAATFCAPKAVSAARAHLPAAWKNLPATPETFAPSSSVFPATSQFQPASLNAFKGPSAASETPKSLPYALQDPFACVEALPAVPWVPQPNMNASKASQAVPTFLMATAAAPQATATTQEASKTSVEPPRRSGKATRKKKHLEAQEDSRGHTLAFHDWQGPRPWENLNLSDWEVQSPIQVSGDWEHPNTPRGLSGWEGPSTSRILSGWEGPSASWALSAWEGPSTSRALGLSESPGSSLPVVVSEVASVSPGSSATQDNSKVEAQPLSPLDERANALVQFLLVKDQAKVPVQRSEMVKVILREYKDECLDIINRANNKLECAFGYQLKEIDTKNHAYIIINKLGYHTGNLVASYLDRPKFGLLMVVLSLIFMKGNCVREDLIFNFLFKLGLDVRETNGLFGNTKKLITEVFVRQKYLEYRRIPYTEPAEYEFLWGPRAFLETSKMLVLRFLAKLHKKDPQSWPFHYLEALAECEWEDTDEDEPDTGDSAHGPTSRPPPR

Assay in all cases: co-IP; transient cotransfection of FLAG-YTHDF1, 2 or 3 with V5-MAGEL2 or V5-CtermMAGEL2; FLAG immunoprecipitation (anti-FLAG M2 affinity gel); V5 immunoblot
The target in one assay is T1, FLAG-YTHDF2 (UniProt Q9Y5A9).
T1 sequence: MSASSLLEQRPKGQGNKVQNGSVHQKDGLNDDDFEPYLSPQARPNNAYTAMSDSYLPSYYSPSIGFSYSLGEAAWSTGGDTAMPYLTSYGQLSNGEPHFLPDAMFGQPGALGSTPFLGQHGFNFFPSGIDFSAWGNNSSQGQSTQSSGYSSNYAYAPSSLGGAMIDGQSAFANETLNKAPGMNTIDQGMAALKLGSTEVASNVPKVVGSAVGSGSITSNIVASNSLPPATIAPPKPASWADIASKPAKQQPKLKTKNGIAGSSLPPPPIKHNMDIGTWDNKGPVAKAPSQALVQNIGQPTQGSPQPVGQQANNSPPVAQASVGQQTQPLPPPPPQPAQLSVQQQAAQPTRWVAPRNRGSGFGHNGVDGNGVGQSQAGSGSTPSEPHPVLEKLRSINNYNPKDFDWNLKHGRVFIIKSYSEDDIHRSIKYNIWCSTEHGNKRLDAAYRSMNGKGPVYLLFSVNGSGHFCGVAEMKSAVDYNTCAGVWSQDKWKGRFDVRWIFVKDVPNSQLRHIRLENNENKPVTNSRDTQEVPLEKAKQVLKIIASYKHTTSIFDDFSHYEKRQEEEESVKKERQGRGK

Another assay concerns the target T2, FLAG-YTHDF1 (UniProt Q9BYJ9).
T2 sequence: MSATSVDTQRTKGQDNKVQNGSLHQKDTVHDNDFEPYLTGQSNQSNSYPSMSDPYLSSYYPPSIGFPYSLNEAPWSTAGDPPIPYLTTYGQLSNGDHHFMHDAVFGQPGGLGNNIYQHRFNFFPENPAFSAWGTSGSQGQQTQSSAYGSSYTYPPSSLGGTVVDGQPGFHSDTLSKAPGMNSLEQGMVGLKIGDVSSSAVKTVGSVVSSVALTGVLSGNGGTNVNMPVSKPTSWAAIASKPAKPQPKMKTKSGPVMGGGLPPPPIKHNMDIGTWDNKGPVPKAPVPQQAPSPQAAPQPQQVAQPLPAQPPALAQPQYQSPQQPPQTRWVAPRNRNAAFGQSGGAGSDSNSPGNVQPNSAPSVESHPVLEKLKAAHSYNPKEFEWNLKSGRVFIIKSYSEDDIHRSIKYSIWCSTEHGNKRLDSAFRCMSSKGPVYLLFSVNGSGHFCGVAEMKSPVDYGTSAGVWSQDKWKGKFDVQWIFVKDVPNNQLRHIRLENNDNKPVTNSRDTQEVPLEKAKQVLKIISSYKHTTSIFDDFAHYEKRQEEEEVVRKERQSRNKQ

The target of another assay is T3, FLAG-YTHDF3 (UniProt Q7Z739).
T3 sequence: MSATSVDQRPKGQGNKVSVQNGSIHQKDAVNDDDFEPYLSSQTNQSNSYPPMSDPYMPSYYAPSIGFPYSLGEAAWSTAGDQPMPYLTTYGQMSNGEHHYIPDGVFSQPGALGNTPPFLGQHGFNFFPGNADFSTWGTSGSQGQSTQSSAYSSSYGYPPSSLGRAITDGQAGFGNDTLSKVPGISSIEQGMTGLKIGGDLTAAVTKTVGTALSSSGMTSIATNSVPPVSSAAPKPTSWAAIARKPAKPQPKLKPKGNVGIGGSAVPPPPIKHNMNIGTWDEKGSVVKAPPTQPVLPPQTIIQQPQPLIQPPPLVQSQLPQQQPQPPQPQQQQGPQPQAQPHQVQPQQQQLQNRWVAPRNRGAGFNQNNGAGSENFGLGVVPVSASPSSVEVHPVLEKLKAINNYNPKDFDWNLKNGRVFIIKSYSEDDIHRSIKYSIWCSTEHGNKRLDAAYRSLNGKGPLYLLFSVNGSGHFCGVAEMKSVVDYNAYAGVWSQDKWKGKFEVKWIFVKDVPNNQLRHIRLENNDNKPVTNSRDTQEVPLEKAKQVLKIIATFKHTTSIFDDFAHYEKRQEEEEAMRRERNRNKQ

On to “V5-tagged CtermMAGEL2 (from UniProt Q9UJ55 605-1249) (domain or fragment)”, for which the binding entry in the assay with FLAG-YTHDF2, with FLAG-YTHDF1 and with FLAG-YTHDF3 was “no binding” in each case.
For V5-MAGEL2 (from UniProt Q9UJ55 1-1249), the binding result with FLAG-YTHDF2, with FLAG-YTHDF1 and with FLAG-YTHDF3 was “binds” in each case.

For the origin of these results see paper PMC8350409.
